Screen size: about 150,000 compounds; about 540 (0.36%) showed an effect of 50% or more. This is one part of the list.
system: Plasmodium falciparum; assay: Primary screen in NF54 nanoGlo assay, in single point, at 2uM, 72h; a lower Z score goes with more inhibition; assay type: functional, Erythrocyte; conditions: timepoint 72 hour

| Structure (SMILES) | % Inhibition [%] | Z score |
| --- | --- | --- |
| Cc1cc(-c2ccncc2)nn1CCNC(=O)N1CCNC1=O | 4 | -0.51 |
| COc1ccc(-n2nc(C(=O)N3CCCCCC3)nc2-c2ccccc2)cc1 | -12 | 2.34 |
| CCOC(=O)C(=O)Nc1cc(C(=O)OC)cc(C(=O)OC)c1 | -5 | 0.78 |
| O=C1COc2ccc(S(=O)(=O)N[C@H]3CCOc4ccccc43)cc2N1 | -2 | 0.36 |
| Cc1ccc(C(=O)N2CCc3c(c(CCC(=O)N4CCCCC4)nn3C)C2)cn1 | -12 | 1.55 |
| CCn1cc(S(=O)(=O)Nc2sccc2C(=O)NC)cn1 | 7 | -0.89 |
| CC(=O)N(C1CCOCC1)[C@H]1CCN(C(=O)Nc2ccc(C)cc2C)C1 | 28 | -3.2 |
| C[C@@H]1CC[C@H](C)N1S(=O)(=O)c1sc2c(c1C(=O)O)CCNC2 | -9 | 1.56 |
| CC(C)(CCC(=O)NC1CCCCC1)C(=O)NC1CCCCC1 | -5 | 0.82 |
| Cc1ccc(CNC(=O)Cc2cccs2)s1 | -6 | 0.83 |
| CC(=O)N1CCN(C2CN(CC(C#N)CCC#N)CC2C)CC1 (stereo unspecified) | -8 | 0.92 |
| O=C(NC1CCCCC1)c1ccc(NS(=O)(=O)c2cccs2)cc1O | 4 | -0.34 |
| O=C1C2C3C=CC(C3=C(c3ccccc3)c3ccccc3)C2C(=O)N1c1cccc2ccccc12 (stereo unspecified) | 20 | -2.52 |
| O=C(NCc1cc(F)cc(F)c1)C1CCN(c2cnc(N3CCOCC3)nc2)CC1 | -9 | 1.08 |
| CCc1cccc2c1NC(=O)[C@]21[C@@H]2C(=O)N(Cc3ccc4c(c3)OCO4)C(=O)[C@@H]2[C@@H]2CCCN21 | -14 | 1.81 |
| Cc1cc(C)nc(O[C@H]2CCN(C(=O)CN3CCN(c4ccccc4)C3=O)C2)n1 | -10 | 1.49 |
| CC(NC(C)c1nnnn1C)c1c(F)cccc1F (stereo unspecified) | 2 | -0.2 |
| C=CCCC(=O)N1CC(NC(=O)C(F)(F)F)CCC1C(F)(F)F (stereo unspecified) | 2 | -0.23 |
| COc1ccc(F)c(CN2CCC[C@@]3(CCN(CCc4ccccc4)C3)C2=O)c1 | -13 | 2.26 |
| CC(C)n1ccnc1CNC(=O)[C@]1(c2ccccc2)CC12CCCC2 | -11 | 2.18 |
| Cc1ccc(CNc2cnc3c(c2)COCC3)s1 | 2 | -0.21 |

| Structure (SMILES) | % Inhibition [%] | Z score |
| --- | --- | --- |
| COCCn1c(C)cnc1C[C@H]1CCN(C(=O)Nc2ccc(C)c(C)c2)C1 | 1 | -0.16 |
| COCCN(Cc1ccnn1C)C(=O)[C@@H]1COCCN1C | -10 | 1.38 |
| CN(CCc1cccc2ccccc12)C(=O)C1CC(O)CN1 (stereo unspecified) | 4 | -0.44 |
| COc1ccnc(NCCn2c(C)nc3ccccc32)n1 | 0 | 0.02 |
| Cc1ccsc1CN(C)C(=O)c1ccccc1-c1nccn1C | -5 | 0.8 |
| CC1CCN([C@H](NC(=O)c2ccc(C(C)(C)C)cc2)C(Cl)(Cl)Cl)CC1 | -2 | 0.34 |
| C#CCOC[C@@H](O)CN(Cc1ccco1)Cc1c(-c2ccccc2)noc1N1CCOCC1 | -6 | 1.29 |
| COc1ccc(C(=O)N2CCC3(CC2)OC[C@@H](C(=O)NCc2ccco2)N3C(=O)c2ccccc2)cc1 | -10 | 1.49 |
| Cc1cc(NC(=O)c2nnn(-c3nccs3)c2C)no1 | -17 | 3.18 |
| O=C(CCOc1ccccc1)N1CC(=O)N(CC(F)(F)F)C1 | -3 | 0.53 |
| Nc1ccc(N2C(=O)C3C(C2=O)[C@H]2CC[C@@H]3C2)cc1 (stereo partly specified) | -4 | 0.71 |
| CN(c1cc([C@H]2CCOC2)ncn1)C1CCCCC1 | -9 | 1.7 |
| Cc1ccccc1C(=O)N[C@@H]1CCCC[C@H]1NC(=O)C1CCN(C(=O)c2ccc3ccccc3c2)CC1 | -4 | 0.63 |
| COc1ccc([C@@]2(N3CCCC3)Oc3ccccc3C(C#Cc3ccccc3)=C2C)cc1 | -3 | 0.51 |
| CC(NC(=O)N1CCCCC1)(C(F)(F)F)C(F)(F)F | 38 | -1.36 |
| NC(=O)Cc1ccc(Cl)cc1Cl | -10 | 1.37 |
| O=C(NCCc1ccccc1)c1cccc(Oc2cc(-c3cccc(F)c3)ncn2)c1 | 8 | -1.04 |
| CCOC1CCN(C(=O)c2ccc(-c3ccco3)nc2C)CC1 | -12 | 1.63 |
| O=C(c1ccnc(-c2ccccc2F)c1)N1CCCCC1 | -9 | 1.58 |
| Cn1ccnc1C(=O)[C@H]1CCCN(C(=O)c2onc3c2CCCC3)C1 | -4 | 0.71 |
| CN(C[C@H]1COc2ccccc2O1)C(=O)c1cn(CC2CCCCC2)nn1 | 7 | -1.05 |

| Structure (SMILES) | % Inhibition [%] | Z score |
| --- | --- | --- |
| Cc1cccc(C(=O)Nc2cccc(N3C(=O)CC[C@@H]3C)c2)n1 | -16 | 1.58 |
| CCCN(C[C@H]1CCCO1)C(=O)c1cc(NC(C)=O)cc2nc(-c3cccc(OC)c3)n(CC)c12 | 0 | 0.06 |
| O=S(=O)(NCCNS(=O)(=O)c1cccc(F)c1F)c1cccc(F)c1F | 7 | -1.1 |
| Cc1ccc(=O)n(CC(=O)N2CCCC[C@H]2c2cccc(C)c2C)n1 | 12 | -2.31 |
| CC(C)Nc1nc2nonc2n2nnnc12 | 31 | -3.95 |
| COc1ccc2c(c1)N1CCN(c3ccccc3OC)CC1C(C(=O)NCc1ccccc1F)C2 (stereo unspecified) | -9 | 1.15 |
| Cc1cc(=O)c(C(=O)N(CC2CC3C=CC2C3)C(C)C)c[nH]1 (stereo unspecified) | -12 | 1.18 |
| COc1cc(CN(C)Cc2cnccn2)ccc1F | -14 | 1.4 |
| Cc1ccccc1C1=NO[C@@H](CN(Cc2ccccc2)C(=O)NC(C)(C)C)C1 | 9 | -1.24 |
| Cc1ncsc1C(=O)N1CCOC[C@H]1c1ncn(CC(F)(F)F)n1 | -12 | 1.56 |
| Cc1nc(N(C)C)nc(-c2ccc(C(=O)NCc3ccno3)cc2)c1C | -8 | 1.42 |
| NC(=O)Nc1c(Cl)cccc1Cl | -12 | 1.71 |
| Cn1c(C(=O)NCc2ccc(-c3ncon3)cc2)cc2c(Cl)cccc21 | -5 | 0.8 |
| CN(CC(=O)N(C)C1CCC(c2ccccc2)CC1)c1cnccn1 (stereo unspecified) | 35 | -5.12 |
| CCOc1ccccc1C(=O)N1CCOC[C@@H]1CC(C)C | -4 | 0.53 |
| Cc1cccc(Cl)c1C(=O)NC(C1CCNCC1)[C@H]1C[C@H](O)C1 (stereo partly specified) | -9 | 1.88 |
| CCCC(=O)N1c2ncnn2C(c2ccccc2OC)CC1c1ccccc1 (stereo unspecified) | -6 | 0.81 |
| O=c1c2ccccc2nc(-c2cccc3ccccc23)n1Cc1cccc(Cl)c1 | -8 | 0.9 |
| CC(=O)c1c(C)nn(CC(=O)N2CCN(CCOc3ccc(Cl)cc3C)CC2)c1C | -1 | 0.23 |
| CCOC1(c2ccc(OCc3nc(-c4ccccc4)oc3C)cc2)CC(C(=O)O)C1 (stereo unspecified) | -16 | 1.66 |
| C[C@@H](CNS(=O)(=O)c1cnn(C2CCOCC2)c1)c1nccs1 | -8 | 0.89 |

| Structure (SMILES) | % Inhibition [%] | Z score |
| --- | --- | --- |
| CC1(C)CN(C(=O)NCc2ccccc2)C[C@@H]2CN(C(=O)C3CCCC3)CCN21 | 2 | -0.24 |
| CCOC1CC(NC(=O)c2ccnn2CC(F)F)C12CCOCC2 (stereo unspecified) | -2 | 0.21 |
| C[C@H](NCC(=O)Nc1ccnn1C1CCCC1)c1cccs1 | -2 | 0.22 |
| CCC(C(=O)OC)N(C(=O)C1CCOC1)c1ccccc1 (stereo unspecified) | -3 | 0.32 |
| CCN(CC)C(=O)c1ccc2c(c1)N(CC(=O)N1CCCCCC1)C(=O)CO2 | 0 | 0.02 |
| O=C(Nc1cccc(F)c1)N(CCO)CCOCC(F)(F)F | -6 | 0.75 |
| Cc1ccc(C)c(OC[C@@H](O)CN2CCC(Cc3nccn3C)CC2)c1C | 11 | -1.07 |
| CC[C@@H]1Oc2ccc(NC(=O)COc3ccccc3)cc2CN(Cc2ccc(F)cc2)C1=O | 3 | -0.42 |
| O=C(NCC[C@H]1CCCO1)c1cc2c(s1)CCC2 | -8 | 1.19 |
| COc1ccccc1NC(=O)c1nnn2c1c(=O)[nH]c1cc(F)ccc12 | 5 | -1.07 |
| CC(C)c1nsc(N2CCN(CC(=O)N3CCCC[C@@H]3C)CC2)n1 | -11 | 0.96 |
| Cc1cnn(CC(=O)N2CCC3(CC2)CC(=O)N(Cc2ccc(Cl)cc2)C3)c1 | -8 | 1.01 |
| Cc1nn(-c2nc(C)c(C)c(=O)[nH]2)c(C)c1CCC(=O)NCc1cccnc1 | -11 | 1.43 |
| C[C@@H](Cn1cccn1)Nc1ccc2cc[nH]c2n1 | 6 | -1.04 |
| N#CC1(c2cccc3ccccc23)CCCCC1 | 0 | -0.03 |
| Cc1cc(C(=O)N2CCC[C@H](N)C2)c(C)n1C(C)C | -9 | 1.44 |
| COc1ccc(NC(=O)CCc2c(-c3ccc(Cl)cc3)nc3ccc(-c4cc5ccccc5s4)cn23)cc1 | 0 | -0.04 |
| COc1ccc(CCNc2cc(C(C)(C)C)nc3c(-c4ccc(F)cc4)c(C)nn23)cc1OC | 11 | -1.22 |
| COc1ccccc1N1CCN(C(=O)CNC(=O)c2cn(-c3ccccc3OC)c(=O)c3ccccc23)CC1 | 1 | -0.09 |
| O=C(NCc1ccc(N2CCCC2=O)cc1)c1ccc2c(c1)OCO2 | -8 | 1.21 |
